# Data as given in publication PMC4336329 (PLoS ONE, 2015).
# The whole screen tested about 310,000 compounds, of which about 14,000 (4.5%) showed an effect of 50% or more. The effect is printed as a negative number. The list shows a part of the results.
# Biological target: human ether-à-go-go-related gene (hERG) potassium channel (human, UniProt Q12809)
# Experiment: primary screen, population patch clamp on CHO cells stably expressing hERG
# 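Further: peak tail current of the secondary pulse compared with the same well before compound.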
# Sequence of human ether-à-go-go-related gene (hERG) potassium channel (Q12809 whole entry, looked up): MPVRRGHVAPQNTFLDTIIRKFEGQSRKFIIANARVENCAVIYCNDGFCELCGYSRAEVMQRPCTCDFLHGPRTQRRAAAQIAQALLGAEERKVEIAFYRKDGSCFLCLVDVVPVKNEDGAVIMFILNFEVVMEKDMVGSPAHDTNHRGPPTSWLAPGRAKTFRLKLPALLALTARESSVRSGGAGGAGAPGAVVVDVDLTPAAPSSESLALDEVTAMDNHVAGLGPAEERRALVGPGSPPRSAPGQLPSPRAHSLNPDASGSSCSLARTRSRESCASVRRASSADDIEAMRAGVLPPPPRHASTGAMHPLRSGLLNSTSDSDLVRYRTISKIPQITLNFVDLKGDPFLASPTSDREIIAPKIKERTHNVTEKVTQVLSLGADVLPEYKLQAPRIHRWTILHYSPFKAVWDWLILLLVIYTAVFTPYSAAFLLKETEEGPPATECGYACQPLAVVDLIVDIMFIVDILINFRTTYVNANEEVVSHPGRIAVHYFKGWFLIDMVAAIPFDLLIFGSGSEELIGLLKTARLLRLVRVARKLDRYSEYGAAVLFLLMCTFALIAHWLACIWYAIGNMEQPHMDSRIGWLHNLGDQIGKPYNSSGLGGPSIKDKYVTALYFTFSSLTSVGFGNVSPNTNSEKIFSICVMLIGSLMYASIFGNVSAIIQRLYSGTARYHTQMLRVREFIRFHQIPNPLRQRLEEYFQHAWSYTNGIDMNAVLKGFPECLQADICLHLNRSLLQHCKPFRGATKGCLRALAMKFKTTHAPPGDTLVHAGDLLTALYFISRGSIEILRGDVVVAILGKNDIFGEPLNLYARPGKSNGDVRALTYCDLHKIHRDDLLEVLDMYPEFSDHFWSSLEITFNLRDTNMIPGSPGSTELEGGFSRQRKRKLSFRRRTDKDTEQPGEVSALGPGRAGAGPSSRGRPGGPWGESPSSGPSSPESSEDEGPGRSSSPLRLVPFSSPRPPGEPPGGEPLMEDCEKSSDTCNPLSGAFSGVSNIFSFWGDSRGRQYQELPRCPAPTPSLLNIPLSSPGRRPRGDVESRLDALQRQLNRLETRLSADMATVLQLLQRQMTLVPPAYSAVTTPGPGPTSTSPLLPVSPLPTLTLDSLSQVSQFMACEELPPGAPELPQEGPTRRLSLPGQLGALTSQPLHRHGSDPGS
row,SMILES,"hERG current change (%, negative = inhibition) at 10uM"
1,COc1ccc(C(=O)/C=C/Nc2cccc(C)n2)cc1OC,14.7%
2,CCCCCCC(=O)c1c([O-])n(-c2ccccc2OC)c(=O)[nH]c1=O.C[NH+](C)C,12.7%
3,COc1ccc(/C=N\Nc2ccc([N+](=O)[O-])cc2)c(C(=O)O)c1OC,-2.04%
4,CCc1ccc(N/C(SC)=C(/C#N)C(N)=O)cc1,-4.57%
5,COC1CCCN(C(=O)c2ccc(OC3CCN(CCc4ccccc4)CC3)cc2)C1 (stereo not shown),-11.6%
6,Cn1c(CNC(=O)c2ccccc2)nnc1SCC(=O)N1CCN(c2ccccc2)CC1,1.77%
7,Cc1ccc(N2CC(C(=O)OCc3ccccc3F)CC2=O)cc1 (stereo not shown),-7.25%
8,Cc1c(Cl)cccc1NC(=S)NCCc1ccc(S(N)(=O)=O)cc1,-3.88%
9,N#C/C(=C\c1c[nH]c2ccccc12)C(=O)NCC1CCCO1 (stereo not shown),10.4%
10,COc1cc(OC)cc(C(=O)Nc2nnc(SCC(=O)NCc3ccco3)s2)c1,-0.238%
11,COc1ccc(NC(=O)c2ccc(-n3cccn3)nc2)c(OC)c1,8.65%
12,COc1ccc(/C=C(/NC(=O)c2ccccc2)C(=O)N/N=C/c2ccncc2)c(OC)c1,1.53%
13,O=c1[nH]c(NC2CCCCC2)c([N+](=O)[O-])c(=O)[nH]1,14.7%
14,COc1ccc(OCCSc2ncc(CO)n2C)cc1,12.4%
15,O=C1c2ccccc2C(=O)N1CCSc1ccccc1,-14.5%
16,CCOC(=O)N1CCc2c(sc3nc(SC(C)C)n(N)c(=O)c23)C1,-20.9%
17,CC(OC(=O)CCCc1c[nH]c2ccccc12)C(=O)Nc1ccc(S(N)(=O)=O)cc1 (stereo not shown),-19.8%
18,OCC1(CC2CCCCO2)CCN(Cc2ccccc2-c2ccco2)CC1 (stereo not shown),-27.4%
19,COc1ccccc1NS(=O)(=O)c1cccc(C(=O)NNC(=O)c2ccc(=O)[nH]c2)c1,1.85%
20,CC(C)(C)c1ccc(C(=O)NCC(=O)N2CCCC2)cc1,11.4%
21,CC(C)Nc1nc(-c2ccccc2)nc(-n2ccnc2)n1,-0.0673%
22,Cc1nc(SCCOc2ccccc2)[nH]c(=O)c1Cc1ccccc1,10%

row,SMILES,"hERG current change (%, negative = inhibition) at 10uM"
1,Cc1ccc(NS(=O)(=O)c2ccc(-c3csc(C)n3)s2)c(C)c1,16%
2,COc1cccc(-n2c(O)c(C=NCc3ccc4c(c3)OCO4)c(=O)[nH]c2=O)c1,2.39%
3,CC(=C/c1ccccc1)/C=N/n1c(C)n[nH]c1=S,14.1%
4,CCOc1cc(-c2cn(S(=O)(=O)c3cccc4nsnc34)nc2N)cc(OCC)c1OCC,0.719%
5,N/C(=N\OC(=O)c1ccc(Br)o1)c1cccnc1,11.7%
6,CN(C(=O)COC(=O)CN1C(=O)c2cccc([N+](=O)[O-])c2C1=O)c1ccccc1,3.54%
7,CCC(c1nnnn1CS(=O)(=O)c1ccc(C)cc1)N1CCN(c2nc3ccccc3s2)CC1 (stereo not shown),-4.38%
8,Clc1ccc(-c2nnc(-c3ccccc3)o2)c(Cl)c1,-7.78%
9,CN(Cc1ccccc1)C(=O)CN1CCCC1=O,0.755%
10,Cc1noc(C(=O)Nc2ccc(C#N)cc2)c1Cl,15%
11,COc1ccc(-c2csc(N3CCC(c4ccccc4)C3)n2)cc1 (stereo not shown),12.8%
12,CC(C)c1ccccc1NC(=S)NCCCn1ccnc1,15%
13,COc1ccc(/C=C/C(=O)c2ccc(OC)cc2OC)cc1,-10.9%
14,COCc1cc(=O)[nH]c(/N=C(\N)Nc2ccc(C)cc2C)n1,15.3%
15,Clc1cccc(Cl)c1-c1nnc2cccc(Cl)n12,-8%
16,CC(=O)c1ccccc1OCC(=O)Nc1cccc(S(=O)(=O)N2CCCC2)c1,5.47%
17,Cc1cc(C)cc(-n2nnnc2-c2cn(C)nc2C(F)(F)F)c1,-3.11%
18,COc1ccc2c(c1)CCCC21NC(=O)N(CC(=O)c2cc(F)ccc2F)C1=O (stereo not shown),-7.18%
19,O=C1[C@H]2[C@H]3[C@H](O)[C@H](O)C/C(=N\OC[C@@H](O)COCc4ccco4)[C@@H]3CC[C@H]2C(=O)N1c1ccc(F)cc1F,13.1%
20,O=C(CSc1ccccc1)Nc1cc(S(=O)(=O)N2CCOCC2)ccc1N1CCOCC1,14.5%
21,Cc1nc2ccccc2nc1CSc1nnc(N)s1,-4.13%
